# In PubChem BioAssay (NCI):
#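 96-well plates; 48 h exposure; 5 concentrations. Endpoints by linear interpolation between flanking doses. Not reached: highest tested concentration assigned. GI50 = concentration required for 50% inhibition of growth. TGI marks complete inhibition of growth.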
# Test system: NCI-H322M lung
# Assay: inhibition of tumour cell growth, NCI panel, 48 h
Compound,GI50 [µM],TGI [µM]
C#C[C@]1(O)CC[C@H]2[C@@H]3CC=C4c5sc(-c6ccc(F)cn6)nc5CC[C@]4(C)[C@H]3CC[C@@]21C,4.22,16.5
O=C(Nc1cc(C(F)(F)F)cc(C(F)(F)F)c1)Nc1ccc2oc(=O)ccc2c1,2.69,> 100
Oc1ccccc1-c1nnc(SCc2ccc(O)c3ncccc23)n1-c1ccccc1,0.482,> 100
Oc1ccc(CSc2nnc(-c3ccccc3)o2)c2cccnc12,1.77,> 100
